In PubChem BioAssay AID488969 (Vanderbilt High Throughput Screening Facility, 2010):
In all, about 110,000 compounds were measured (“z-score”: median about -0.1, highest 2% from about 2 on). This is one part of the list. Activity calls are given as the source filed them.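 The calls were made as follows: active = z-score in the third read window above 3 or below -3; inactive = the rest.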

Target: Metabotropic glutamate receptor 8 (Rattus norvegicus) (UniProt P70579)
Assay: rat mGluR8 modulators via GIRK flux, primary screen, cell-based, thallium flux, HTS (AID 488969)
Conditions: HEK293 rat mGluR8, GIRK (G protein-gated inwardly rectifying potassium channel) thallium flux, FluoZin2; at 10 µM; stronger effect = higher value; submaximal glutamate (EC20) added with thallium

Sequence of UniProt P70579 (P70579 whole entry, looked up): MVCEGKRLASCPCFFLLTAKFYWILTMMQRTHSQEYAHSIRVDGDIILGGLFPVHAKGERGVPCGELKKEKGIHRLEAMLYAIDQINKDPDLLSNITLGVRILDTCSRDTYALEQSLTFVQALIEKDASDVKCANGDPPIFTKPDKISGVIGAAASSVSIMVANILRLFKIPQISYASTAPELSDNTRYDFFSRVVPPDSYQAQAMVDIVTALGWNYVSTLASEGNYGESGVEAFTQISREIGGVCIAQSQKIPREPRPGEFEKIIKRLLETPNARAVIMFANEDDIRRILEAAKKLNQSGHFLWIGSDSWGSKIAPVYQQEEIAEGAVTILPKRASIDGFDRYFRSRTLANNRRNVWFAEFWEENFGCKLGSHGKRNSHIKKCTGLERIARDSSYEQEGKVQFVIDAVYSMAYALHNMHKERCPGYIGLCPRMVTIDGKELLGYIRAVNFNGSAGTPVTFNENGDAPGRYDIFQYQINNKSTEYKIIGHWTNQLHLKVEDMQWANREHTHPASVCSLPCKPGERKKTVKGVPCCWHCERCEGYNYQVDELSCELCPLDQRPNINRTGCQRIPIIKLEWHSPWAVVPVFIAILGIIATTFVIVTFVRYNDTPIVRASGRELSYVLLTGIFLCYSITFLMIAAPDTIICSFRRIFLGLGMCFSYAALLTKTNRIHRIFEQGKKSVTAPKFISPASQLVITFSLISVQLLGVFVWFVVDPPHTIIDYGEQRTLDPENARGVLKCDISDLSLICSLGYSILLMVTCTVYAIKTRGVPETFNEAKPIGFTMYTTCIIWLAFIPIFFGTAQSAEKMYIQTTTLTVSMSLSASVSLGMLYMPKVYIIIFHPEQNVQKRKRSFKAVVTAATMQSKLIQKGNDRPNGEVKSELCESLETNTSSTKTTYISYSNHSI

SMILES	z-score
Cc1csc2nc(CCNS(=O)(=O)c3ccc4c(c3)OCCO4)cn12	-0.12
COC(=O)c1ccccc1OCCCN(C)C	0.536
CCC(=O)N1CCc2cc(S(=O)(=O)NCCC(=O)N3CCN(Cc4ccccc4)CC3)ccc21	-0.948
COc1ccc(NC(=O)C2C3C=CC4(CN(Cc5cccnc5)C(=O)C24)O3)c(OC)c1 (stereo not given)	-0.433
BrC(=C\c1ccccc1)/C=N/N1CCN(Cc2ccccc2)CC1	-0.136
Cc1c(Cl)c(-c2n[nH]c(=S)n2-c2ccccc2)nn1C	-0.29
CC(C)CCN1CC(C(=O)N2CCN(c3ccc(F)cc3)CC2)CC1=O (stereo not given)	-0.0242
O=c1[nH][nH]c(C(F)(F)F)c1C=NCc1ccccc1Cl	-0.188
Cc1cc(C)cc(C(=O)NCC(=O)OCC(=O)N2CCN(S(=O)(=O)c3ccc4ccccc4c3)CC2)c1	-0.368
CCOc1ccccc1-c1nc(-c2cc3ccc(C)cc3[nH]c2=O)no1	-0.256
CCN(CC)c1ccc(/C=C2/C(=O)N(c3ccc([N+](=O)[O-])cc3)N=C2N2CCOCC2)cc1	0.0375
CN(C)Cc1ccccc1Sc1cccc2ccccc12	0.194
CC(=O)c1c(C)[nH]c(C(=O)Nc2ccc(Cl)c(S(=O)(=O)N3CCOCC3)c2)c1C	1.6
CCCCNc1c(N)n(CCCC)c(=O)[nH]c1=O	-0.141
CC(C)Oc1ccc(C(=O)Nc2ccc(N3CCCCC3)cc2)cc1	-0.31
COc1cccc(/C(O)=C2/C(=O)C(=O)N(CCN(C)C)C2c2ccc(Br)cc2)c1 (stereo not given)	0.33
N#Cc1c2ncn(CC(=O)c3ccc(Br)cc3)c(=O)c2c2n1CCC2	-0.192
CCCCCCCCCCn1c2c(c(=N)c3c1CCC3)CCC2	0.554
COc1ccc(C(C)C)cc1S(=O)(=O)NCc1ccccn1	0.105
CC1=CC(=O)C=C(C)C1=NOS(=O)(=O)c1ccccc1	0.257
CC(C(=O)O)N1C(=O)c2cccc3cccc1c23 (stereo not given)	0.0263
COC(=O)c1ccc2nc(NC(=O)CN3C(=O)CCC3=O)sc2c1	-0.249
CC1(C(=O)CSc2nc3ccccc3s2)CCC(=O)O1 (stereo not given)	-0.314
CCc1nnc(NC(=O)CSc2nnc(COc3ccc(C#N)cc3)n2-c2ccccc2)s1	-0.997
O=C(NCCc1ccccn1)c1cc(-c2ccccc2Cl)nc2ccccc12	-0.288
Cc1ccc2nc(SC(C)C(=O)N3CCCC3)[nH]c2c1 (stereo not given)	-0.517
CC(NC(=O)OCc1ccccc1)C(=O)Oc1cc2oc(=O)cc(-c3ccccc3)c2cc1Cl (stereo not given)	-0.331
CCOC(=O)Cc1csc(NC(=S)NC(=O)c2ccc(C)cc2)n1	active: 8.13
O=C(CCN1CCc2ccccc2C1)Nc1cccc(F)c1	0.845
COc1cc(NC(=O)c2ccccc2[N+](=O)[O-])ccc1NC(=O)C(C)C	-0.178
